In paper PMC6411902:
No constants are given. Whether binding was seen depends on the method and setting. In cells and extracts the contact can be indirect. Some entries that bind do so weakly or less than the wild type. For some assays here: Where a sequence is shown, tags or fusion partners need not be part of it. One block for each molecule: values may come before it.

Amino acid sequences for entries named in this document (tags omitted). A change or cut given only in a name is not applied to a line headed by its entry.
UniProt Q9BV68: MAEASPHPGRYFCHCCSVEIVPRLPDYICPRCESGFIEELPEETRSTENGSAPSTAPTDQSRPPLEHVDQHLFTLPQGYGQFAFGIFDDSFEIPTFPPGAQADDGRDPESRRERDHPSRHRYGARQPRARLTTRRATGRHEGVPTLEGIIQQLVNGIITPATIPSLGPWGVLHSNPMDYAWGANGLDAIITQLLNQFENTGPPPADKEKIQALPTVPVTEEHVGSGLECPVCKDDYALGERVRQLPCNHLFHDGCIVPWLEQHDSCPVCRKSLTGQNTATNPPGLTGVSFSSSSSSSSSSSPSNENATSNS
UniProt P61088: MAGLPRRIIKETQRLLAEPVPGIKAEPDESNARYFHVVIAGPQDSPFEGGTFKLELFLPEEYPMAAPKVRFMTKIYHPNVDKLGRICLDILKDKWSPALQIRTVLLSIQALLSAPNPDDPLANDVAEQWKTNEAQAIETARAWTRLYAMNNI
UniProt Q8IYW5: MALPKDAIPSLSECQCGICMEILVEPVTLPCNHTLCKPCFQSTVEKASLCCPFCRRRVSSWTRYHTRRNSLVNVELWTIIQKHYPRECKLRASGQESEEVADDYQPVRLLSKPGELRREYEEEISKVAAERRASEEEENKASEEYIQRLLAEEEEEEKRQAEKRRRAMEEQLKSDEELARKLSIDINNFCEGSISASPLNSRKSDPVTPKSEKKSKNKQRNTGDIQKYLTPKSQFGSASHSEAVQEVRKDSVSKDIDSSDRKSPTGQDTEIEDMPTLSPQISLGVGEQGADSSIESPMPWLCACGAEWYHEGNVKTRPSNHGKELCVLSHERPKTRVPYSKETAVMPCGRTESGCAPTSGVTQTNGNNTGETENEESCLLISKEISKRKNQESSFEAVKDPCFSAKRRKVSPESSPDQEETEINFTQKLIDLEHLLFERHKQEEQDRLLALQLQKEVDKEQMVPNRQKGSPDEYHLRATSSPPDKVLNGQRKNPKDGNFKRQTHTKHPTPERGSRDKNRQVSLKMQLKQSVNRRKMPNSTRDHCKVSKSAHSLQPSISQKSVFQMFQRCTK

Legend:
[1] = target: RNF126 (ring finger protein 126), endogenous (human (endogenous in HEK293T)) (UniProt Q9BV68); test: co-IP; endogenous proteins; total lysates of HEK293T cells immunoprecipitated with an anti-RNF126 antibody, immunoblotting
GST-RNF126 (human) = GST-RNF126 (human) (UniProt Q9BV68); test: pull-down; bacterially-produced GST-RNF126 as bait; FLAG-RNF168 in the total cell lysate of transiently transfected HEK293T cells; only the target purified
FLAG-UBC13 = FLAG-UBC13 (UniProt P61088); test: co-IP; HEK293T cells co-expressing HA-RNF168, FLAG-UBC13 and GFP-RNF126 or GFP-RNF126(CC229/232AA); mock or bleomycin treatment for 1 h; lysates extracted with SDS-containing lysis buffer and boiled for 10 min; immunoprecipitation with anti-FLAG beads
HA-RNF168 (human) = HA-RNF168 (human) (UniProt Q8IYW5); test: co-IP; epitope-tagged proteins co-expressed in HEK293T cells; total lysates harvested 48 h after transfection, immunoprecipitation (anti-FLAG beads in Figure 2B; indicated antibodies in the other panels) and immunoblotting
FLAG-RNF8 = target: T1, FLAG-RNF8 (UniProt O76064); test: as above
T1 sequence: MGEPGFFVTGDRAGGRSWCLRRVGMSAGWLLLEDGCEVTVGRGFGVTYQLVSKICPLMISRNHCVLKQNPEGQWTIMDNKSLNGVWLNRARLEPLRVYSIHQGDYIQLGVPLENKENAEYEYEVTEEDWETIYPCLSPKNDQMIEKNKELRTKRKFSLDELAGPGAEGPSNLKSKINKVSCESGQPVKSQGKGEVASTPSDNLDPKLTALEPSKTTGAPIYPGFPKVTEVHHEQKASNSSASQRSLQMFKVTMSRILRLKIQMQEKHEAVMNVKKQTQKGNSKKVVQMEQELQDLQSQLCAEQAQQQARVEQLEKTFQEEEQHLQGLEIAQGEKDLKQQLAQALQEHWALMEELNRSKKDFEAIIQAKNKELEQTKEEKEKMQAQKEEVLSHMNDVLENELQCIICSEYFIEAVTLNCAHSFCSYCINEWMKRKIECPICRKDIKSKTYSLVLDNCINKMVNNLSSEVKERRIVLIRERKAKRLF

HA-RNF126 (human) = HA-RNF126 (human) (UniProt Q9BV68); test: as above

Molecule: FLAG-RNF168 (from UniProt Q8IYW5 1-571)
binding (GST-RNF126 (human)): binds

Molecule: GFP-RNF126(201–311) (from UniProt Q9BV68 201-311) (domain or fragment)
binding (HA-RNF168 (human)): no binding
binding (FLAG-RNF8): no binding

B1: RNF8 (ring finger protein 8), endogenous (protein, UniProt O76064 1-485)
chain: T1 sequence
binding [1]: binds

B2: GFP-RNF8 N-terminus (aa 1–141) (domain or fragment, UniProt O76064 1-141)
chain: MGEPGFFVTGDRAGGRSWCLRRVGMSAGWLLLEDGCEVTVGRGFGVTYQLVSKICPLMISRNHCVLKQNPEGQWTIMDNKSLNGVWLNRARLEPLRVYSIHQGDYIQLGVPLENKENAEYEYEVTEEDWETIYPCLSPKND
binding (HA-RNF126 (human)): binds

More lines, now with the values ahead:

binding [1]: binds
Molecule: RNF168, endogenous (from UniProt Q8IYW5 1-571)

binding (FLAG-UBC13): binds
Molecule: HA-RNF168 (from UniProt Q8IYW5 1-571)

binding (HA-RNF168 (human)): binds
binding (FLAG-RNF8): binds
Molecule: GFP-RNF126(1–100) (from UniProt Q9BV68 1-100) (domain or fragment)

binding (HA-RNF168 (human)): no binding
binding (FLAG-RNF8): no binding
Molecule: GFP-RNF126(101–200) (from UniProt Q9BV68 101-200) (domain or fragment)
